Positions count from the first letter of the chain named. Results are given in words; binding and its absence hold for the method and conditions named. Binding seen in cells or lysates may run through a third protein. Some binding calls cover weakened binding; strength is not graded here. For part of these data: Where a sequence is shown, tags or fusion partners need not be part of it.

Sequences of proteins named here, by UniProt entry; tags and fusion partners are left off.
UniProt P63010: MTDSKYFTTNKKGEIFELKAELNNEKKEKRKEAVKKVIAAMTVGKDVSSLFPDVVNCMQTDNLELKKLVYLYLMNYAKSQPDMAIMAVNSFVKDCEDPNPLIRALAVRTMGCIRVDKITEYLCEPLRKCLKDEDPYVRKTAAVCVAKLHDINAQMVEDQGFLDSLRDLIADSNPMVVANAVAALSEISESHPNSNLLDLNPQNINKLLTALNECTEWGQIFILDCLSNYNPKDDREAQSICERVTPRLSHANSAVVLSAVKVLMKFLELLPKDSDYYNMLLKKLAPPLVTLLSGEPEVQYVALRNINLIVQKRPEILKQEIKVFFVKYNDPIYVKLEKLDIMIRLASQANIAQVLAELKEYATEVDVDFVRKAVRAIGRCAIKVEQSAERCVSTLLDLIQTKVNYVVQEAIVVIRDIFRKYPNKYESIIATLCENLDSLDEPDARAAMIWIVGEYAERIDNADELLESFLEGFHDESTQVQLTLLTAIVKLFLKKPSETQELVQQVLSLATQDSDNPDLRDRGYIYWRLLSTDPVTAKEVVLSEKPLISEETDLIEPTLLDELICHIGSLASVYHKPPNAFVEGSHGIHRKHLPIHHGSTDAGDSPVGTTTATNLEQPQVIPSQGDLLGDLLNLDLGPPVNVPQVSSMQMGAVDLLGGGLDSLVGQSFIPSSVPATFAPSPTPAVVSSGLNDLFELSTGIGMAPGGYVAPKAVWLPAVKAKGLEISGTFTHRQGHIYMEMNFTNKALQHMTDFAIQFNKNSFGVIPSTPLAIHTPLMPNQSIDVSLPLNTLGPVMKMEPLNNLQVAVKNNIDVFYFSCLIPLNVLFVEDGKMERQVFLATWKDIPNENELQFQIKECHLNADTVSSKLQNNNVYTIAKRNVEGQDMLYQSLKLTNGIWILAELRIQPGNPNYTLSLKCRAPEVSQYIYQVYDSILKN
UniProt Q9Y5X1: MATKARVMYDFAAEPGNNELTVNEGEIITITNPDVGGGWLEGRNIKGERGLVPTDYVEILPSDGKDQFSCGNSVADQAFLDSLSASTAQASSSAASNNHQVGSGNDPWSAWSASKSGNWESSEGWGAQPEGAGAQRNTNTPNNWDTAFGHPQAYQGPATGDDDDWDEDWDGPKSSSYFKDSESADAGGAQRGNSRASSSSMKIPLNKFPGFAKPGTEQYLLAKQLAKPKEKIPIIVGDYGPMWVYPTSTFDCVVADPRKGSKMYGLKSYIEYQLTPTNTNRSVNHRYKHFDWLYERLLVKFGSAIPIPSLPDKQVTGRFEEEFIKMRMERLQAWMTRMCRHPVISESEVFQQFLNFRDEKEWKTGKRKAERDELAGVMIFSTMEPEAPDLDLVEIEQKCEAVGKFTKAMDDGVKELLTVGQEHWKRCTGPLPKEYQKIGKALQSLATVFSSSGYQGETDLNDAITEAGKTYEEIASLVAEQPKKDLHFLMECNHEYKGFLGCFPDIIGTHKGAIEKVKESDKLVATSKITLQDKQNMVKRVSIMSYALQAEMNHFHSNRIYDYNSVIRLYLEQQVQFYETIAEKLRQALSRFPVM
UniProt Q00987: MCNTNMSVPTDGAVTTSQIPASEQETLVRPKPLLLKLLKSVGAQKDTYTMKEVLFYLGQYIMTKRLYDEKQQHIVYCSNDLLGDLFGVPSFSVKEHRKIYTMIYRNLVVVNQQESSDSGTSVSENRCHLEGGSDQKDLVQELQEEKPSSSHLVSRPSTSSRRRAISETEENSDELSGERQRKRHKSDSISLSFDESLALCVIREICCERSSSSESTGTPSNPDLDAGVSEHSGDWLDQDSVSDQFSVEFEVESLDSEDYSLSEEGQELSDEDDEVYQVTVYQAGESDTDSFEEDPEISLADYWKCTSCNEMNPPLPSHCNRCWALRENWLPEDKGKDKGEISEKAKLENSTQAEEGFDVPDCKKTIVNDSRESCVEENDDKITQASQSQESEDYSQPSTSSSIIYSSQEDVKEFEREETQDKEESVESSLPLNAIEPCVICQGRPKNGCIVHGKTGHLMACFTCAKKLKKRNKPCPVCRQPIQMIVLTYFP

The target of one assay is T1, NUMB-1-FLAG (human) (UniProt P49757).
T1 sequence: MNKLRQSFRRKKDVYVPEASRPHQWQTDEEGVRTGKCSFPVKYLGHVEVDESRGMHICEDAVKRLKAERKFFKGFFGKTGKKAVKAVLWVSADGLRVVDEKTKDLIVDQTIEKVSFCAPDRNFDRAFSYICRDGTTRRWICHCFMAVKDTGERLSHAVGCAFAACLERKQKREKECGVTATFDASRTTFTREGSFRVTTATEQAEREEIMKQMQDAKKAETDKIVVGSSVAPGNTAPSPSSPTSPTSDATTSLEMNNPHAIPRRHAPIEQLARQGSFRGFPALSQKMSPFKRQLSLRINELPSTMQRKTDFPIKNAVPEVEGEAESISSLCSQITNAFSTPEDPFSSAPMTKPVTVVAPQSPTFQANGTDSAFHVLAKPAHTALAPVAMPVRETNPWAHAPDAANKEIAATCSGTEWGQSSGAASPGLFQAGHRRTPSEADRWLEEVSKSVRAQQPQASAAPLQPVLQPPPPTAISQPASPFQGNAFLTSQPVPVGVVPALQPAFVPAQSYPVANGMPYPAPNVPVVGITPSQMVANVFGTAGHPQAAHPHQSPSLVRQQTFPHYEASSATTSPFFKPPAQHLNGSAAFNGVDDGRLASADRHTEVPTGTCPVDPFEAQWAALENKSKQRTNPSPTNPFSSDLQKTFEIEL
The assay is described as follows: co-IP; lysates of transfected HEK-293 cells in JS buffer (50 mM HEPES pH 7.5, 150 mM NaCl, 1% Triton X-100), anti-FLAG or anti-HA beads, 2 h at 4 C, immunoblot; in some panels SNX9 siRNA or graded amounts of SNX9-HA.

A further assay concerns the target T2, NUMB-1-GFP11 (human) (UniProt P49757).
T2 sequence: T1 sequence
The assay is described as follows: split reporter; tripartite split-GFP: SNX9-GFP10 and NUMB-1-GFP11 transfected into HEK-293 cells stably expressing GFP 1-9 and KO for SNX9 and NUMB; GFP fluorescence imaged.

The target of assay [1] is T3, NUMB-1-F162V, FLAG-tagged (human) (UniProt P49757).
T3 sequence: T1 sequence with F162V
Nature of the assay: co-IP; lysates of transfected HEK-293 cells in JS buffer (50 mM HEPES pH 7.5, 150 mM NaCl, 1% Triton X-100), anti-FLAG or anti-HA beads, 2 h at 4 C, immunoblot; in some panels SNX9 siRNA or graded amounts of SNX9-HA. A general note: A western blot detects proteins with antibodies after separation by electrophoresis.

The target of assay [2] is T4, NUMB, endogenous (human (endogenous in HEK-293, MCF10A, HBL-100)) (UniProt P49757).
T4 sequence: T1 sequence
Nature of the assay: co-IP; endogenous proteins from HEK-293 lysate in JS buffer, anti-NUMB (AB21) or anti-SNX9 antibody on Protein A/G magnetic beads, 2 h at 4 C, immunoblot; in some panels SNX9 or NUMB siRNA.

Assay [3] concerns the target T4, NUMB, endogenous (human (endogenous in HEK-293, MCF10A, HBL-100)). The assay is described as follows: co-IP; endogenous proteins from HBL-100 cells (Figure S1B,C).
For assay [4] the target is unchanged. The assay is described as follows: co-IP; endogenous proteins from MCF10A cells (Figure S1B,C).

Consider “AP2B1 (AP2 complex subunit beta-1), endogenous (from UniProt P63010 1-937)”, for which the binding entry with NUMB-1-FLAG (human) is given as “binds”.
As to “SNX9-WT-GFP10 (from UniProt Q9Y5X1 1-595)”, in the assay with NUMB-1-GFP11 (human), the binding result was “binds”.
As to MDM2-HA (from UniProt Q00987 1-491), the binding entry in the assay with NUMB-1-FLAG (human) is listed as “binds”.
Still for that read-out and setting: the value for SNX9-HA (from UniProt Q9Y5X1 1-595) was “binds”.
Consider “sorting nexin 9 (SNX9), endogenous (from UniProt Q9Y5X1 1-595)”, for which the binding entry in assay [1] is reported as “no binding”; with NUMB-1-FLAG (human), “binds”; in assay [2], “binds”; in assay [3], “binds”; in assay [4], “binds”.

For the origin of these results see article PMC13248759.
